Measurements reported in PubChem BioAssay AID1346428 (National Center for Advancing Translational Sciences (NCATS), 2018).
Among all 48,000 compounds or so, about 1,200 (2.5%) were called active. Another 2% or so got no clear call; they are omitted.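 Rule for the calls: active = activation of at least 60% and not above a set upper limit (about 1 call in 100 departs from these limits); inconclusive = activation of 40% to 60%, or above that upper limit; inactive = activation under 40%.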 The list shows a part of the results.

biological target: Probable G-protein coupled receptor 32 (Homo sapiens) (UniProt O75388); test: qHTS for Agonists of Human Resolvin D1 Receptor DRV1; conditions: CHO-K1 GPR32 beta-arrestin PathHunter luminescence, 90 min; at 76.9 µM; stronger effect = higher value; zero percent set by DMSO-only wells; note: 0% is about no effect
Outline: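 GPR32 activation in stably transfected CHO-K1 cells, detected as beta-arrestin recruitment by enzyme-fragment complementation. Compound exposure: 90 min, 37 °C.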

Sequence of UniProt O75388 (O75388 whole entry, looked up, the tested form may be a part): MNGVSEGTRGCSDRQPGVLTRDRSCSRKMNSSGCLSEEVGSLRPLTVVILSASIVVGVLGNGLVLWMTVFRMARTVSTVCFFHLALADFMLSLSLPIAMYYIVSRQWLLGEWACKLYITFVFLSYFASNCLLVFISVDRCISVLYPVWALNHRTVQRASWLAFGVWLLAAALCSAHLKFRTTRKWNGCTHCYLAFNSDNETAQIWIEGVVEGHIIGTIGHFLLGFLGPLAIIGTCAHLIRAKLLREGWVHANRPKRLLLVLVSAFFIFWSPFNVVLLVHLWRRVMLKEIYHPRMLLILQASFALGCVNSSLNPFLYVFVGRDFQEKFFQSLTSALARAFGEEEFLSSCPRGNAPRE

Compound	activation
Cc1ccc(CNC(=O)CCCn2c(=O)c3ccccc3n(CC(=O)Nc3ccc(C)cc3)c2=O)cc1	inactive: -3.32%
CCOc1ccc(NC(=O)CCc2c(C)nn(-c3ccc(N4CCCC4)nn3)c2C)cc1	inactive: -2.78%
CCC(C(=O)Nc1ccc(C)c(C)c1)n1c(=O)c(C(F)(F)F)nc2ccccc21 (centres undefined)	inactive: -22.2%
Cc1nc2cc(-c3ccccc3)nn2c(C)c1CCC(=O)Nc1ccc(F)cc1F	inactive: 27.2%
Cc1ccc(CNC(=O)CS(=O)(=O)c2cccc3nsnc23)cc1	inactive: 2.22%
CCOC(=O)c1c(NC(=O)COc2ccc(Cl)cc2C)sc2c1CCCCC2	inactive: -0.0005%
COc1cccc(NC(=O)Cn2c(=O)n(CCC(=O)NCCc3ccc(Cl)cc3)c(=O)c3ccccc32)c1	inactive: -3.15%
COc1ccc(CCNC(=O)Cc2c(C)c3cc4c(C(C)(C)C)coc4c(C)c3oc2=O)cc1	inactive: -6.45%
COc1ccc(NC(=O)CC2C(=O)N(c3ccc(OC)cc3)C(=O)N2CCC2=CCCCC2)cc1 (centres undefined)	inactive: -29.6%
Cc1ccc(C)c(Nc2cc(C(=O)NC3CCCC3)c3ccccc3n2)c1	inactive: 0.529%
COc1cc(-c2noc(-c3ccc(NCC4CCCO4)c([N+](=O)[O-])c3)n2)cc(OC)c1OC (centres undefined)	inactive: -31.6%
Cc1ccc(CNC(=O)c2cc3c(=O)n(Cc4ccco4)ccc3nc2C)cc1	inactive: -15%
COc1cc(NC(=O)CSc2nc3ncccc3o2)cc(OC)c1	inactive: -8.43%
Cl/C(=C\n1cncn1)c1ccc(Cl)cc1Cl	inactive: 16.2%
CCOc1ccc(CCNC(=O)CN2C(=O)COc3ccc(S(=O)(=O)N4CCCC4)cc32)cc1	inactive: -20.4%
Cc1ccc(NC(=O)CCC(=O)N2Cc3ccccc3Oc3ncccc32)c(C)c1	inactive: -15.2%
Cc1ccc(C(C)C)c(OCC(O)CN2CCN(c3ccccc3F)CC2)c1 (centres undefined)	inactive: -15.2%
Cc1cccc(NC(=O)CSc2nc(-c3ccccc3)cc(=O)[nH]2)c1C	inactive: 12.5%
COc1ccc(Cl)cc1S(=O)(=O)NCc1ccc2c(c1)CCN2C(=O)c1cccc(C)c1	inactive: -15.2%
COc1ccc(-n2nnnc2C2CCN(S(=O)(=O)c3ccc(NC(C)=O)cc3)CC2)cc1	inactive: 27.4%
Cc1cccc(-c2nc(C)c(CCNC(=O)C(=O)Nc3ccccc3C#N)s2)c1	inactive: 45.5%

Compound	activation
CCn1c(=N)c(C(=O)NCc2ccccc2)cc2c(=O)n3cccc(C)c3nc21	inactive: 15.6%
Cc1ccc(Cn2ccnc2SCC(=O)NCc2ccccc2Cl)cc1	inactive: -11.3%
CCn1c(C(=O)N2CCC(C(=O)NCCc3ccc(C)cc3)CC2)cc2sccc21	inactive: -9.5%
N#Cc1c(C(F)(F)F)cc(-c2ccc(F)cc2)nc1SCC(=O)Nc1ccccc1	inactive: -1.72%
Cc1ccccc1NC(=O)CSc1nc2ccccc2c2nc(CCn3cncc3C)nn12	inactive: -16.7%
COc1ccc(NC(=O)CCc2c(C)nn(-c3ccc(N4CCCCC4)nn3)c2C)cc1Cl	inactive: -10.1%
COCCCNC(=O)c1ccc(-c2nc(CS(=O)(=O)c3ccc(C)cc3)c(C)o2)cc1	inactive: 7.32%
Cc1oc(-c2ccc(C(=O)NCc3cccc(F)c3)cc2)nc1COc1ccccc1	inactive: -9.78%
CCOC(=O)c1ccc(N2C(=O)c3n[nH]c(-c4ccco4)c3C2c2cccc(OC)c2)cc1 (centres undefined)	inactive: -12.9%
COC(=O)c1ccc2c(=O)n(CCCCCC(=O)NCCc3ccc(Cl)cc3)c(=O)[nH]c2c1	inactive: -3.07%
COc1ccccc1C(=O)Nc1cccc(C(=O)OCc2cc(=O)n3ccsc3n2)c1	inactive: -6.25%
Cc1ccc(S(=O)(=O)N(CC(=O)Nc2ccc(Cl)cc2Cl)c2ccccc2C)cc1	inactive: -10.2%
CCOC(=O)C1CCCN(C(=O)c2ccc3c(c2)sc2nc(-c4ccc(CC)cc4)cn23)C1 (centres undefined)	inactive: 3.73%
Cc1ccc(CNC(=O)C(C)n2nc(C)n3c(cc4sccc43)c2=O)cc1 (centres undefined)	inactive: -4%
COc1cccc2c1cc1c(=O)n(CC(=O)N3CCN(c4ccccc4)CC3)nc(C)n12	inactive: -11.1%
O=C(CCS(=O)(=O)c1ccc(Br)cc1)Nc1ccc(F)cc1F	inactive: -5.29%
CCc1ccc(CNc2ccc3c(c2)ncn3C(C)(C)C)cc1	inactive: -11.2%
Cc1ccc(-c2nc3ncccn3c2Nc2ccc3c(c2)OCCO3)cc1	inactive: -4.23%
Cc1cccc(NS(=O)(=O)c2ccc3c(c2)CC(C)N3C(=O)C2CCC2)c1C (centres undefined)	inactive: 21.2%
CCc1nc2ccc(C(=O)NCc3cc(OC)ccc3OC)cc2nc1CC	inactive: -25.7%
COC(=O)c1nc(Cl)c(Cl)nc1N	inactive: 47.3%

Compound	activation
CCOc1ccc(N2CC(c3nc4ccccc4n3CCOc3ccccc3OC)CC2=O)cc1 (centres undefined)	inactive: -20.5%
COc1ccc(Cn2c(=O)n(Cc3ccco3)c(=O)c3oc4ccccc4c32)cc1	inactive: -16.6%
Cc1cccc2sc(N(CCN(C)C)C(=O)c3ccc4c(c3)OCCO4)nc12	inactive: -20.1%
CCOc1ccc(CCNC(=O)CS(=O)(=O)Cc2nc(-c3ccc(OC)cc3)oc2C)cc1	inactive: -4.09%
CCN(CC)c1ccc(NC(=O)c2cnn(-c3ccccc3)c2-n2cccc2)c(C)c1	inactive: -3.5%
CC(=O)N1CCc2cc(S(=O)(=O)CCC(=O)Nc3ccc(C)cc3Br)ccc21	inactive: 15%
Cc1ccc(Cn2c(C)c3cnn(CC(=O)NCc4ccccc4)c(=O)c3c2C)cc1	inactive: -8.21%
COc1ccc(-c2nc(CSCC(=O)N3CCN(c4cc(Cl)ccc4C)CC3)c(C)o2)cc1	inactive: -13.9%
Cc1cc(OC(C)C(=O)Nc2cccc(-c3nc4ccccc4o3)c2)cc(C)c1Cl (centres undefined)	inactive: -6.97%
CC(CCc1ccccc1)NC(=O)Cn1ncc2c3ccccc3n(Cc3ccccc3F)c2c1=O (centres undefined)	inactive: -13.6%
CCc1nn(CC(=O)N2CCN(c3ccc(OC)cc3)CC2)c(=O)c2cc3sccc3n12	inactive: -18.3%
CC[C@@]1(c2ccccc2)NC(=O)N(C)C1=O	inactive: -3.38%
O=C(CCn1c(=O)c2cccn2c2cccnc21)N1CCN(c2ccccc2)CC1	inactive: -14.7%
Cn1c(=O)oc2cc(S(=O)(=O)CCC(=O)N3CCN(c4ccccc4F)CC3)ccc21	inactive: -3.57%
COc1ccc(-c2cnc(C)o2)cc1S(=O)(=O)Nc1ccc(NC(C)=O)cc1	inactive: 3.99%
CCC(=O)C1=C(c2ccc(F)cc2)N(C(=O)CC)n2c(nnc2-c2ccc(OC)cc2)S1	inactive: -27%
O=C(CSc1nccn1-c1cccc(Cl)c1)Nc1ccc2c(c1)OCO2	inactive: -3.65%
CCN(C(=O)C1CCN(S(=O)(=O)c2cc(Br)cc3c2N(C(C)=O)CC3)CC1)c1cccc(C)c1	inactive: 9.02%
CCC(=O)NNc1ncnc2c1cnn2-c1ccc(C)c(Cl)c1	inactive: 9.79%
Cc1ccc(-c2cc(C(=O)Oc3ccc(C#N)cc3)no2)cc1	inactive: 30.5%
CCn1c(SCC(=O)Nc2ccccc2C(=O)OC)nc2ccsc2c1=O	inactive: -7.15%

Compound	activation
CCc1ccc(CSc2nc(-c3ccccc3F)nc3c2Cc2c(CO)cnc(C)c2O3)cc1	inactive: 22%
CCN(Cc1ccccc1)C(=O)Cn1c(=O)n(-c2ccccc2)c(=O)c2c1c1cc(C)ccc1n2C	inactive: 11.8%
Cc1nc2ccccc2c(=O)n1-c1ccc(NC(=O)c2ccccc2[N+](=O)[O-])cc1	active: 67.9%
O=C(CSc1nc(=O)[nH]c2c1CCC2)NCc1ccccc1Cl	inactive: -5.74%
Cc1ccc(NC(=O)Cn2c(=O)n(Cc3ccco3)c(=O)c3oc4ccccc4c32)cc1C	inactive: -0.395%
COc1ccc(OC(=O)c2nc(SCc3ccccc3F)ncc2Cl)cc1	inactive: -20%
CCC(C)NC(=O)c1nn(-c2ccc(C)cc2)nc1CO (centres undefined)	inactive: 0.458%
Cc1cccc(CN2C(=O)c3ccccc3Sc3ccc(C(=O)NC4CCCCC4)cc32)c1	inactive: -19.2%
O=C(Nc1ccc2nc(SCC(=O)N3CCOCC3)sc2c1)c1cccc(Br)c1	inactive: 0.699%
CC(C)(C)c1ccc(C(=O)NCC(c2cccnc2)N2CCc3ccccc3C2)cc1 (centres undefined)	inactive: -15%
Cc1cccc(CNC(=O)C2CCC(CNS(=O)(=O)c3ccc4c(c3)CCCC(=O)N4)CC2)c1 (centres undefined)	inactive: 12.4%
COc1cc(NC(=O)CN2CCN(c3ccc(F)cc3)CC2)cc(OC)c1	inactive: -19%
Cc1ccc2oc(-c3ccc(NC(=O)CCC(=O)O)cc3)nc2c1	inactive: -21.1%
Cc1ccc(NC(=O)CCc2c(C)nc3c(-c4ccc(F)cc4)c(C)nn3c2C)cc1F	inactive: -10.9%
Cc1cc(C)c(Nc2ncnc3c2cnn3C)c(C)c1	inactive: -2.73%
CCn1cc2nc(SCC(=O)Nc3cc(OC)cc(OC)c3)n(Cc3ccc(Cl)cc3)c(=O)c2n1	inactive: -0.0407%
Cc1nn(CC(=O)NC2CCC(C)CC2)c(=O)c2c1sc1ccccc12 (centres undefined)	inactive: 0.0637%
O=C(/C=C/c1ccccc1Cl)N1CCC(c2nc3ccccc3o2)CC1	inactive: 9.45%
COC(=O)N1CCCc2cc(S(=O)(=O)NCc3ccccc3)ccc21	inactive: -3.74%
CCOc1ccc(NC(=O)c2sc3nc4n(c(=O)c3c2C)CCC4)cc1	inactive: 8.07%
COc1ccc(-c2nn3c(=O)cc(CN4CCN(C(=O)/C=C/c5ccccc5)CC4)nc3s2)cc1	inactive: 29.5%
